The IC50 comes from the fitted curve, where viability falls to half of the control; where the fit passes the top or lowest dose, that dose stands as a limit. AUC is the area under the same curve over the 256-fold range up to the top dose, as a fraction; it is 1 without any effect and falls as sensitivity rises. Where the top dose is marked as inferred, it is not printed in the source and was worked back from the curve model. For some assays here: Where an entry number is given, a second screen of the drug exists; the two often differ.
Legend:
Assay in all cases: Viability of human cancer cell lines after 72 h of drug (GDSC screen)
HG-5-113-01 = compound: CNC(=O)c1ccc(Nc2cc(Nc3ccccc3S(=O)(=O)C(C)C)c3cc[nH]c3n2)nc1 [HG-5-113-01]; details: top dose 10 µM; top dose inferred
Protocol: (§1)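 Human cancer cell lines in 384-well plates, medium with 10% serum, drug for 72 h over a 256-fold dose range (nine 2-fold or five 4-fold steps up to the top dose). Adherent lines were fixed and stained with the nucleic acid dye Syto60, suspension lines read with resazurin; signal relative to control wells, capped at 0 and 100%. One two-parameter sigmoid per drug and line, fitted in a mixed model over all curves with the slope shared within a line.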

VX-702 = compound: NC(=O)c1ccc(N(C(N)=O)c2c(F)cccc2F)nc1-c1ccc(F)cc1F [VX-702]; details: top dose 2 µM; top dose inferred
Protocol: as §1

Shikonin = compound: CC(C)=CC[C@@H](O)C1=CC(=O)c2c(O)ccc(O)c2C1=O [Shikonin]; details: top dose 16 µM; top dose inferred
Protocol: as §1

SB-525334 = compound: Cc1cccc(-c2[nH]c(C(C)(C)C)nc2-c2ccc3nccnc3c2)n1 [SB-525334]; details: top dose 20 µM; top dose inferred
Protocol: as §1

Wee1 inhibitor 681640 = compound: O=C1NC(=O)c2c1c(-c1ccccc1Cl)cc1[nH]c3ccc(O)cc3c21 [Wee1 inhibitor 681640]; details: top dose 2 µM; top dose inferred
Protocol: as §1

Olaparib = compound: O=C(c1cc(Cc2n[nH]c(=O)c3ccccc23)ccc1F)N1CCN(C(=O)C2CC2)CC1 [Olaparib]
Protocol: as §1

BMS-536924 = compound: Cc1cc(N2CCOCC2)cc2[nH]c(-c3c(NC[C@@H](O)c4cccc(Cl)c4)cc[nH]c3=O)nc12 [BMS-536924]; details: top dose 4 µM; screen: GDSC drug entry 1091; top dose inferred
Protocol: as §1

BIRB 0796 = compound: Cc1ccc(-n2nc(C(C)(C)C)cc2NC(=O)Nc2ccc(OCCN3CCOCC3)c3ccccc23)cc1 [BIRB 0796]; details: top dose 10 µM; top dose inferred
Protocol: as §1

[1] = top dose 5 µM, screen: GDSC drug entry 1017, top dose inferred
[2] = top dose 10 µM, screen: GDSC drug entry 1495

Cell Line	AUC (HG-5-113-01)	IC50 (HG-5-113-01)	AUC (VX-702)	IC50 (VX-702)	AUC (Shikonin)	IC50 (Shikonin)	AUC (SB-525334)	IC50 (SB-525334)	AUC (Wee1 inhibitor 681640)	IC50 (Wee1 inhibitor 681640)	AUC (Olaparib; [1])	IC50 (Olaparib; [1])	AUC (Olaparib; [2])	IC50 (Olaparib; [2])	AUC (BMS-536924)	IC50 (BMS-536924)	AUC (BIRB 0796)	IC50 (BIRB 0796)
NCI-H1993 (lung adenocarcinoma, adherent)	0.909	> 10 µM	0.972	> 2 µM	0.608	2.18 µM	0.974	> 20 µM	0.982	> 2 µM	0.974	> 5 µM	0.978	> 10 µM	0.961	> 4 µM	0.981	> 10 µM
NCI-H2087 (lung adenocarcinoma, semi-adherent)	0.788	4.74 µM	0.985	> 2 µM	0.361	0.401 µM	0.961	> 20 µM	0.902	> 2 µM	0.982	> 5 µM	0.945	> 10 µM	0.882	> 4 µM	0.975	> 10 µM
NCI-H2291 (lung adenocarcinoma, adherent)	0.733	3.78 µM	0.984	> 2 µM	0.954	> 16 µM	0.984	> 20 µM	0.96	> 2 µM	0.975	> 5 µM	0.974	> 10 µM	0.866	> 4 µM	0.958	> 10 µM
NCI-H2347 (lung adenocarcinoma, adherent)	0.787	5.4 µM	0.983	> 2 µM	0.476	0.849 µM	0.839	18.1 µM	0.957	> 2 µM	0.965	> 5 µM	0.928	> 10 µM	0.919	> 4 µM	0.978	> 10 µM
NUGC-4 (stomach, adherent)	0.848	7.48 µM	0.987	> 2 µM	0.607	1.97 µM	0.924	> 20 µM	0.986	> 2 µM			0.986	> 10 µM	0.879	> 4 µM	0.937	> 10 µM
PC-14 (lung adenocarcinoma, adherent)	0.691	2.01 µM	0.99	> 2 µM	0.514	1.09 µM	0.984	> 20 µM	0.911	> 2 µM	0.981	> 5 µM	0.91	> 10 µM	0.907	> 4 µM	0.984	> 10 µM
PFSK-1 (medulloblastoma, adherent)	0.7	2.37 µM	0.986	> 2 µM	0.846	12.7 µM	0.922	> 20 µM	0.95	> 2 µM	0.912	> 5 µM			0.743	1.3 µM	0.829	6.74 µM
RCM-1 (large intestine, adherent)	0.895	> 10 µM	0.977	> 2 µM	0.6	1.99 µM	0.973	> 20 µM	0.958	> 2 µM	0.985	> 5 µM	0.982	> 10 µM	0.934	> 4 µM	0.981	> 10 µM
RERF-LC-MS (lung adenocarcinoma, adherent)	0.842	7.33 µM	0.987	> 2 µM	0.661	2.85 µM	0.838	14.1 µM	0.942	> 2 µM	0.967	> 5 µM	0.825	6.25 µM	0.887	> 4 µM	0.981	> 10 µM
RERF-LC-Sq1 (lung squamous cell carcinoma, adherent)	0.781	6.4 µM	0.963	> 2 µM	0.788	11 µM	0.947	> 20 µM	0.966	> 2 µM	0.973	> 5 µM	0.971	> 10 µM	0.884	> 4 µM	0.929	> 10 µM
RO82-W-1 (thyroid, adherent)	0.847	> 10 µM	0.98	> 2 µM	0.673	3.49 µM	0.974	> 20 µM	0.889	> 2 µM	0.975	> 5 µM	0.953	> 10 µM	0.959	> 4 µM	0.982	> 10 µM
RT4 (bladder, adherent)	0.852	8.34 µM	0.972	> 2 µM	0.695	3.64 µM	0.939	> 20 µM	0.987	> 2 µM	0.987	> 5 µM	0.972	> 10 µM	0.936	> 4 µM	0.954	> 10 µM
RVH-421 (melanoma, adherent)	0.836	> 10 µM	0.977	> 2 µM	0.547	1.41 µM	0.798	13.8 µM	0.924	> 2 µM	0.978	> 5 µM	0.975	> 10 µM	0.936	> 4 µM	0.978	> 10 µM
SJRH30 (rhabdomyosarcoma, adherent)	0.729	2.88 µM	0.973	> 2 µM	0.323	0.315 µM	0.985	> 20 µM	0.933	> 2 µM	0.978	> 5 µM	0.973	> 10 µM	0.704	0.957 µM	0.952	> 10 µM
SK-MEL-3 (melanoma, adherent)	0.873	> 10 µM	0.975	> 2 µM	0.612	2.15 µM	0.373	0.526 µM	0.978	> 2 µM	0.982	> 5 µM	0.982	> 10 µM	0.873	> 4 µM	0.96	> 10 µM
SK-MEL-30 (melanoma, adherent)	0.896	> 10 µM	0.984	> 2 µM	0.41	0.558 µM	0.907	> 20 µM	0.897	> 2 µM	0.986	> 5 µM	0.972	> 10 µM	0.956	> 4 µM	0.967	> 10 µM
SK-MES-1 (lung squamous cell carcinoma, adherent)	0.919	> 10 µM	0.985	> 2 µM	0.579	1.68 µM	0.959	> 20 µM	0.868	> 2 µM	0.985	> 5 µM	0.952	> 10 µM	0.958	> 4 µM	0.983	> 10 µM
SK-N-AS (neuroblastoma, adherent)	0.722	2.98 µM	0.979	> 2 µM	0.6	1.96 µM	0.958	> 20 µM	0.967	> 2 µM	0.969	> 5 µM	0.971	> 10 µM	0.946	> 4 µM	0.912	> 10 µM
SK-N-SH (neuroblastoma, adherent)	0.732	2.84 µM	0.987	> 2 µM	0.374	0.452 µM	0.891	> 20 µM	0.92	> 2 µM	0.956	> 5 µM	0.972	> 10 µM	0.771	1.52 µM	0.968	> 10 µM
SNG-M (endometrium, adherent)	0.63	1.41 µM	0.974	> 2 µM	0.332	0.344 µM	0.963	> 20 µM	0.864	1.69 µM	0.923	> 5 µM	0.831	6.17 µM	0.839	2.64 µM	0.946	> 10 µM
SNU-387 (liver, adherent)	0.775	4.52 µM	0.984	> 2 µM	0.478	0.861 µM	0.98	> 20 µM	0.974	> 2 µM	0.983	> 5 µM	0.96	> 10 µM	0.893	> 4 µM	0.918	> 10 µM
SU8686 (pancreas, adherent)	0.885	> 10 µM	0.983	> 2 µM	0.522	1.16 µM	0.979	> 20 µM	0.96	> 2 µM	0.955	> 5 µM	0.984	> 10 µM	0.984	> 4 µM	0.918	> 10 µM
SW48 (large intestine, adherent)	0.497	0.615 µM	0.981	> 2 µM	0.498	0.986 µM	0.973	> 20 µM	0.929	> 2 µM	0.984	> 5 µM	0.963	> 10 µM	0.667	0.725 µM	0.982	> 10 µM
SW620 (large intestine, adherent)	0.686	1.93 µM	0.984	> 2 µM	0.306	0.308 µM	0.98	> 20 µM	0.99	> 2 µM	0.981	> 5 µM	0.929	> 10 µM	0.938	> 4 µM	0.988	> 10 µM
SW948 (large intestine, adherent)	0.796	7.43 µM	0.982	> 2 µM	0.63	2.7 µM	0.941	> 20 µM	0.982	> 2 µM	0.981	> 5 µM	0.917	> 10 µM	0.94	> 4 µM	0.973	> 10 µM
SW1573 (lung adenocarcinoma, adherent)	0.733	3.71 µM	0.96	> 2 µM	0.361	0.36 µM	0.968	> 20 µM	0.897	> 2 µM	0.957	> 5 µM	0.929	> 10 µM	0.835	> 4 µM	0.949	> 10 µM
SW1710 (bladder, adherent)	0.749	3.32 µM	0.984	> 2 µM	0.069	< 0.0625 µM	0.949	> 20 µM	0.912	> 2 µM	0.986	> 5 µM	0.958	> 10 µM	0.956	> 4 µM	0.958	> 10 µM
SW1783 (glioma, adherent)	0.857	6.87 µM	0.99	> 2 µM	0.498	0.989 µM	0.983	> 20 µM	0.948	> 2 µM	0.988	> 5 µM	0.959	> 10 µM	0.987	> 4 µM	0.988	> 10 µM
T84 (large intestine, adherent)	0.821	5.94 µM	0.989	> 2 µM	0.742	5.01 µM	0.96	> 20 µM	0.987	> 2 µM	0.989	> 5 µM	0.966	> 10 µM	0.897	> 4 µM	0.989	> 10 µM
TMK-1 (stomach, adherent)	0.748	3.4 µM	0.958	> 2 µM	0.548	1.36 µM	0.968	> 20 µM	0.985	> 2 µM	0.985	> 5 µM	0.938	> 10 µM	0.792	1.94 µM	0.972	> 10 µM
